Source: paper PMC9414551 (Pharmaceuticals, 2022)
Several values for one entry are separate records, joined by “and”; a condition that tells them apart may be missing. Equal values may be shown once.

Legend:
[1] = biological target: T1, NR1-2C NMDAR (Homo sapiens, UniProt Q05586+Q14957); experiment: Whole-cell manual patch-clamp: current block, onset/offset kinetics and trapping, no Mg2+; details: −70 mV; for I1 (% Current) at end of test item addition, normalized to I0: 30 s co-application; for I2 (% Current) at end of test item removal, normalized to I0: 50 s after removal; for reduction of L-glutamate/glycine-elicited NR1-2C current: 10 µM L-glutamate + 10 µM glycine, no Mg2+
T1 sequence (Q14957 20-1233, other chains not shown): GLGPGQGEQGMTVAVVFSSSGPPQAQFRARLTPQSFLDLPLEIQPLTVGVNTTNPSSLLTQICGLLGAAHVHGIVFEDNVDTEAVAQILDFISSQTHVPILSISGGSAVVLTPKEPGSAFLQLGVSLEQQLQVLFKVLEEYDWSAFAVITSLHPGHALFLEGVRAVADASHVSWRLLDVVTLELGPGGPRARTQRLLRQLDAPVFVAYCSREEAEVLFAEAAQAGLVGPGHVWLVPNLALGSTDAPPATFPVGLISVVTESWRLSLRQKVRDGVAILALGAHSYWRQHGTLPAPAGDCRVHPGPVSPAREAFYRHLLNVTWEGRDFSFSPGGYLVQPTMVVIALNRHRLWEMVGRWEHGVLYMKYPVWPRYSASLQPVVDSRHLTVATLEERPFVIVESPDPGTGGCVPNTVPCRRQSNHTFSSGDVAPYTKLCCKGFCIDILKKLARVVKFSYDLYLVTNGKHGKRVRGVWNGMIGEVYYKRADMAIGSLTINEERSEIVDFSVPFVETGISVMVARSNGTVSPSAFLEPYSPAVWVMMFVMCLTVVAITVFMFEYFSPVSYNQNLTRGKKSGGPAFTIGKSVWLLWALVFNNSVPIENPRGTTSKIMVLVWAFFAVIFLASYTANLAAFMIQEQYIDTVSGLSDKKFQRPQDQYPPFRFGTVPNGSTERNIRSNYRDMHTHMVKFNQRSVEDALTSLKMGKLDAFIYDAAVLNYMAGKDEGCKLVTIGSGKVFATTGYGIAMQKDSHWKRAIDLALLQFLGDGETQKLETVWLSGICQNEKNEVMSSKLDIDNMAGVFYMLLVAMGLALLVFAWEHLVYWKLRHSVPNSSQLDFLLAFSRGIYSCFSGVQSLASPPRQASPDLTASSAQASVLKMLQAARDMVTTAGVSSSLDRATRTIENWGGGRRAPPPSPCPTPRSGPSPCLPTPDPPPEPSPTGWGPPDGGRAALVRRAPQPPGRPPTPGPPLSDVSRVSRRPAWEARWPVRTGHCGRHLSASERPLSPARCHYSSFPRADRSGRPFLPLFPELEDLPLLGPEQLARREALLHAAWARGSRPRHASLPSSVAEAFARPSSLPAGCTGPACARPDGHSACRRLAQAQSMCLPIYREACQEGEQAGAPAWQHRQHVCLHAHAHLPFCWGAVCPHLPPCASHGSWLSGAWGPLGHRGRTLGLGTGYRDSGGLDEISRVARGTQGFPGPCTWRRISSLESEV

[2] = biological target: T2, NR1-2B NMDAR (Homo sapiens, UniProt Q05586+Q13224); experiment: FLIPR Ca2+ assay, blocker concentration-response curve; type: cell-based; parameters: host or cells: CHO (CHO-hNR1-h2B), constitutive expression; details: for Min. (%), minimal % Ca2+ influx in the presence of 100 μM blocker: 10 µM L-glutamate, no Mg2+; for Slope: logistic fit of blocker CRC
T2 sequence (Q13224 27-1484, other chains not shown): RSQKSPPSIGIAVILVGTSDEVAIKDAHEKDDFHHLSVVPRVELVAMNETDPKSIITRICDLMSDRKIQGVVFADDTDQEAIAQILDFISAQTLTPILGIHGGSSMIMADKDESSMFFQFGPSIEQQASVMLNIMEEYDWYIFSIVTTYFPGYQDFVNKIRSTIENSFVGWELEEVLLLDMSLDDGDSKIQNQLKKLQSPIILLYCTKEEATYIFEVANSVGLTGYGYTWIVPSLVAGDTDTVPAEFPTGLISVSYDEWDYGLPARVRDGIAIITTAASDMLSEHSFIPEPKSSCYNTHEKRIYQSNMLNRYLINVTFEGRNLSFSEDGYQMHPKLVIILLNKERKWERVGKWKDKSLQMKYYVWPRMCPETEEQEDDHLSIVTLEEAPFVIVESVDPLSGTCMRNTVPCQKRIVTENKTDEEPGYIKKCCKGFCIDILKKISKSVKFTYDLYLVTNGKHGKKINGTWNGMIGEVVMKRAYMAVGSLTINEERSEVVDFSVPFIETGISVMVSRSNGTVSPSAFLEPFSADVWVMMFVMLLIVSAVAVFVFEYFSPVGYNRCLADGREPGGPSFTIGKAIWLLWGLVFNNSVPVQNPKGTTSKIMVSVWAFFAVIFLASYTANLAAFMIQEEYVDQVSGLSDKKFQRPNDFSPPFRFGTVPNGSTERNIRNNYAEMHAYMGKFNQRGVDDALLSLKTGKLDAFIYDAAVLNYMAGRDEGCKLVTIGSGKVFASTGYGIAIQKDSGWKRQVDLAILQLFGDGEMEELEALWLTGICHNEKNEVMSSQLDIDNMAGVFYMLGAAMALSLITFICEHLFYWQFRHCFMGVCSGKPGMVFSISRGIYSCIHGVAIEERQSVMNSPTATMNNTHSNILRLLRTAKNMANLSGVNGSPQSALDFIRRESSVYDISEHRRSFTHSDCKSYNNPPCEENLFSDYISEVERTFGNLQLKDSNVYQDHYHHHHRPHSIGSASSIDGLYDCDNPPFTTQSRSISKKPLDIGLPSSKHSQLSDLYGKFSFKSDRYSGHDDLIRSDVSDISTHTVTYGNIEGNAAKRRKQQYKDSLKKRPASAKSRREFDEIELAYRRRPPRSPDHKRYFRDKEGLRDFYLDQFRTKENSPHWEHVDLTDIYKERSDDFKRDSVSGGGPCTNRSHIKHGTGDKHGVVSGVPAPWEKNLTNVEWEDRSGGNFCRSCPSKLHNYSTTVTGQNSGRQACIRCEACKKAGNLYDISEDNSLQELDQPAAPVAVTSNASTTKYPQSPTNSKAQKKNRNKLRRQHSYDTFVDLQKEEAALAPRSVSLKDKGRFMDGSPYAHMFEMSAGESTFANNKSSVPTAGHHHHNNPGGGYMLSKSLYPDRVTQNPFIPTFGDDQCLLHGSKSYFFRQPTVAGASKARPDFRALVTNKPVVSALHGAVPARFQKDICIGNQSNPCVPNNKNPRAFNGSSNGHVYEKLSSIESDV
From the text: (§1) CHO cell lines stably over-expressing heterodimeric NMDARs composed of human NR1 and 2 subunits were generated by Aptuit, an Evotec company (Verona, Italy). Cell line details are available at ExPASy Cellosaurus database. Research Resource Identifiers (RRIDs) are CVCL_B3TY, CVCL_B3TZ, CVCL_B3U0, and CVCL_B3U1 for CHO-hNR1-h2A, CHO-hNR1-h2B, CHO-hN1-h2C, and CHO-hN1-h2D, respectively. Protein accession numbers were NP_015566, NP_000824, NP_000825, NP_000826, and NP_000827 for NR1, 2A, 2B, 2C, and 2D, respectively. […] The four different heterodimeric NMDARs studied were NR1-2A, NR1-2B, NR1-2C, and NR1-2D. Cell lines were cultured for a maximum of 75 passages.
(§2) FLIPR assay allowed for indirect measurement of intracellular Ca^2+ concentration by means of a Ca^2+-sensitive fluorescent dye (Fluo-4) using the FLIPR instrument (Molecular Devices, San Jose, CA, USA). For these assays, 40 mM stock solutions of the test items were prepared in 100% dimethyl sulfoxide (DMSO), while glutamate and glycine 4 mM stock solutions were prepared in water. 384-well compound plates containing 400 × concentrated test item, glutamate, and glycine were prepared using Labcyte Echo acoustic dispensing system and stored at −20 °C until the day of the experiment.
(§3) Glycine 10 μM was always included in every test item addition.
(§4) Glycine was kept at a constant concentration of 10 μM during experiments.

[3] = biological target: T3, NR1-2A NMDAR (Homo sapiens, UniProt Q05586+Q12879); experiment: cell-based; parameters: host or cells: CHO (CHO-hNR1-h2A), tetracycline-induced expression; details: read-out: L-glutamate Max. (maximal asymptote) in the presence of test item
[4] = biological target: T4, NR1-2D NMDAR (Homo sapiens, UniProt O15399+Q05586); experiment: FLIPR Ca2+ assay, blocker concentration-response curve; type: cell-based; parameters: host or cells: CHO (CHO-hN1-h2D), tetracycline-induced expression; details: for Min. (%), minimal % Ca2+ influx in the presence of 100 μM blocker: 10 µM L-glutamate, no Mg2+; for Slope: logistic fit of blocker CRC
T4 sequence (O15399 28-1336, other chains not shown): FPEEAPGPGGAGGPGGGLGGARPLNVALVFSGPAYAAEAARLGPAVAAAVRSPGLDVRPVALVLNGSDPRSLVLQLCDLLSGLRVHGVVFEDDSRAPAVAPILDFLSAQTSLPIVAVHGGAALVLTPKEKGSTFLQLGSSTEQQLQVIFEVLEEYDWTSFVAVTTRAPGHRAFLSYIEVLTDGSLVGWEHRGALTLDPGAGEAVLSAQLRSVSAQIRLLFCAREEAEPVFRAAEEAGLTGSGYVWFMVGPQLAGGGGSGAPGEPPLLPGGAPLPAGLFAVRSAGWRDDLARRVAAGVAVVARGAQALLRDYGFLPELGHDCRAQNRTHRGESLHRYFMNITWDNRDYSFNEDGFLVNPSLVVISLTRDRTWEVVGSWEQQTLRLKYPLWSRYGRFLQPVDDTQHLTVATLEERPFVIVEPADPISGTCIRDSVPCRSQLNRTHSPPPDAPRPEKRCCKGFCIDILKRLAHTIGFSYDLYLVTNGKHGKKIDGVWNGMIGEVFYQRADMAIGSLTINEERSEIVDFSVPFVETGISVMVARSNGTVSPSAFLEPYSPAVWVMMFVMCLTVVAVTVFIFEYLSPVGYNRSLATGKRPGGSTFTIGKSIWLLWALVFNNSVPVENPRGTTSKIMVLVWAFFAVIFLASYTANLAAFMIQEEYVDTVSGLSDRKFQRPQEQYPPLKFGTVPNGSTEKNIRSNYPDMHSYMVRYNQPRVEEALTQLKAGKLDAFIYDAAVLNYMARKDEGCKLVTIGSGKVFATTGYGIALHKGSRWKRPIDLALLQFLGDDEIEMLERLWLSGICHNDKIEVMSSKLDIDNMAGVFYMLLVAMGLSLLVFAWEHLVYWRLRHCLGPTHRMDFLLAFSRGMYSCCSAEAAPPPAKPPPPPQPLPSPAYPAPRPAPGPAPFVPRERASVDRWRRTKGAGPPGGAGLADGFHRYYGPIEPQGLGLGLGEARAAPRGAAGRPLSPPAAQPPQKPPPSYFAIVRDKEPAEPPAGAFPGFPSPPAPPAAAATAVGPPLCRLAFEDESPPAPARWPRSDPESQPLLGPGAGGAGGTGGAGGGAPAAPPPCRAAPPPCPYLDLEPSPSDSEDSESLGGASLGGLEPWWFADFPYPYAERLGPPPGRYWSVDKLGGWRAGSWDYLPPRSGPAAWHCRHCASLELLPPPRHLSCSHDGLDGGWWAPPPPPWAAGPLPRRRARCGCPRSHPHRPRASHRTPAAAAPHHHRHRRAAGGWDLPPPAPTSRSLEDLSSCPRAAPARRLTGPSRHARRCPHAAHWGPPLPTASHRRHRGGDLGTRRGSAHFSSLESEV
From the text: as §1, §2, §3, §4

[5] = biological target: T1, NR1-2C NMDAR; experiment: cell-based; parameters: host or cells: CHO (CHO-hN1-h2C), tetracycline-induced expression; details: read-out: L-glutamate Max. (maximal asymptote) in the presence of test item
[6] = biological target: T1, NR1-2C NMDAR; experiment: FLIPR Ca2+ assay, blocker concentration-response curve; type: cell-based; parameters: host or cells: CHO (CHO-hN1-h2C), tetracycline-induced expression; details: for Min. (%), minimal % Ca2+ influx in the presence of 100 μM blocker: 10 µM L-glutamate, no Mg2+; for Slope: logistic fit of blocker CRC
From the text: as §1, §2, §3, §4

[7] = biological target: T3, NR1-2A NMDAR; experiment: as above; type: cell-based; parameters: host or cells: CHO (CHO-hNR1-h2A), tetracycline-induced expression; details: for Min. (%), minimal % Ca2+ influx in the presence of 100 μM blocker: 10 µM L-glutamate, no Mg2+; for Slope: logistic fit of blocker CRC
From the text: as §1, §2, §3, §4

[8] = biological target: T2, NR1-2B NMDAR; experiment: cell-based; parameters: host or cells: CHO (CHO-hNR1-h2B), constitutive expression; details: read-out: L-glutamate Max. (maximal asymptote) in the presence of test item
[9] = biological target: T4, NR1-2D NMDAR; experiment: cell-based; parameters: host or cells: CHO (CHO-hN1-h2D), tetracycline-induced expression; details: read-out: L-glutamate Max. (maximal asymptote) in the presence of test item

CNC1(c2ccccc2Cl)CCCCC1=O (racemic) [(±)-Ketamine, (±)-ketamine]
I1 (% Current) at end of test item addition, normalized to I0 ([1]; test item 1 µM, NR1-2C): 28.7%
I2 (% Current) at end of test item removal, normalized to I0 ([1]; test item 1 µM, NR1-2C): 95.5%
B (initial block) ([1]; test item 1 µM, NR1-2C): 74 ± 1% and 74.0 ± 1.2%
BT (trapped block, BR/B × 100) ([1]; test item 1 µM, NR1-2C): 86.7 ± 1.8%
Tau off ([1]; test item 1 µM, NR1-2C): 15.2 ± 0.63 s
Tau on ([1]; test item 1 µM, NR1-2C): 4.7 ± 0.14 s
BR (residual block) ([1]; test item 1 µM, after wash with glycine alone, NR1-2C): 64.1 ± 1.3
reduction of L-glutamate/glycine-elicited NR1-2C current ([1]; test item 3 μM): 90% and 89.7 ± 0.6%
reduction of L-glutamate/glycine-elicited NR1-2C current ([1]; test item 10 μM): 97% and 97.2 ± 0.3%
I1 (% Current) at end of test item addition, normalized to I0 ([1]; test item 10 µM, NR1-2C): 3.6%
I2 (% Current) at end of test item removal, normalized to I0 ([1]; test item 10 µM, NR1-2C): 102.9%
Tau off ([1]; test item 10 µM, NR1-2C): 17.2 ± 3.0 s
Tau on ([1]; test item 10 µM, NR1-2C): 0.99 ± 0.05 s and 0.99 ± 0.050 s
Min. (%), minimal % Ca2+ influx in the presence of 100 μM blocker [2]: 8%
Slope [2]: −0.78
remaining activity at 0.049 µM [3]: 100%
remaining activity at 0.195 µM [3]: 96%
remaining activity at 0.781 µM [3]: 97%
remaining activity at 3.1 µM [3]: 87%
remaining activity at 12.5 µM [3]: 66%
remaining activity at 50 µM [3]: 38%
Min. (%), minimal % Ca2+ influx in the presence of 100 μM blocker [4]: 12%
Slope [4]: −1.1
remaining activity at 0.049 µM [5]: 97%
remaining activity at 0.195 µM [5]: 95%
remaining activity at 0.781 µM [5]: 80%
remaining activity at 3.1 µM [5]: 65%
remaining activity at 12.5 µM [5]: 20%
remaining activity at 50 µM [5]: 6.2%
Min. (%), minimal % Ca2+ influx in the presence of 100 μM blocker [6]: 8%
Slope [6]: −0.83
Min. (%), minimal % Ca2+ influx in the presence of 100 μM blocker [7]: 23%
Slope [7]: −0.76
remaining activity at 0.049 µM [8]: 98%
remaining activity at 0.195 µM [8]: 92%
remaining activity at 0.781 µM [8]: 80%
remaining activity at 3.1 µM [8]: 70%
remaining activity at 12.5 µM [8]: 44%
remaining activity at 50 µM [8]: 24%
remaining activity at 0.049 µM [9]: 98%
remaining activity at 0.195 µM [9]: 97%
remaining activity at 0.781 µM [9]: 93%
remaining activity at 3.1 µM [9]: 81%
remaining activity at 12.5 µM [9]: 45%
remaining activity at 50 µM [9]: 7.1%

C[C@]12N[C@H](Cc3ccccc31)c1ccccc12 [MK-801, dizocilpine]
Min. (%), minimal % Ca2+ influx in the presence of 100 μM blocker [2]: 4%
Slope [2]: −0.94
Min. (%), minimal % Ca2+ influx in the presence of 100 μM blocker [4]: 11%
Slope [4]: −1.2
Min. (%), minimal % Ca2+ influx in the presence of 100 μM blocker [6]: 7%
Slope [6]: −1.0
Min. (%), minimal % Ca2+ influx in the presence of 100 μM blocker [7]: 4%
Slope [7]: −0.69

CC12CC3CC(C)(C1)CC(N)(C3)C2 [Memantine, memantine]
Min. (%), minimal % Ca2+ influx in the presence of 100 μM blocker [2]: 11%
Slope [2]: −0.86
Min. (%), minimal % Ca2+ influx in the presence of 100 μM blocker [4]: 18%
Slope [4]: −0.88
Min. (%), minimal % Ca2+ influx in the presence of 100 μM blocker [6]: 13%
Slope [6]: −0.82
Min. (%), minimal % Ca2+ influx in the presence of 100 μM blocker [7]: 29%
Slope [7]: −0.82
